Reference: PubChem BioAssay (Tox21)
This list was built around the results that the source calls inconclusive (neither active nor inactive); the mix of calls is not that of the screen. Potencies of inconclusive entries are doubtful fits and often do not repeat. The source holds several records for some structures; these can differ, active in one and inactive in another. Active and inactive are the calls of the source. Calls come from the whole dose curve; as a rule, active = well fitted cell-killing curve with a large enough effect in the repeat runs; inconclusive = weak or mixed curves, or effect the other way; inactive = flat fitted curve, though single readings scatter.

Assay: qHTS assay to identify small molecule agonists of the constitutive androstane receptor (CAR) signaling pathway - cell viability counter screen (AID 1224836); for viability change, negative = cytotoxic: % is set by controls: 0 for no effect and ±100 for the full control effect
Conditions: HepG2-CYP2B6-hCAR viability, CellTiter-Fluor, 23 h, PK11195 added to every well; series mostly up to 92.4 µM; viability change, negative = cytotoxic: at the top concentration
Summary of the method: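 Multiplexed viability check: HepG2-CYP2B6-hCAR cells, 15-point compound dosing, 0.75 uM PK11195 final, 23 h at 37 C, CellTiter-Fluor fluorescence.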
Note: nearly all actives have a fitted effect of over 45% in size.
Potency is the fitted concentration of half-maximal effect; tags give direction and shape of the fitted curve.

| SMILES | Potency | viability change, negative = cytotoxic |
| --- | --- | --- |
| Oc1c(Cl)c(Cl)c(Cl)c(Cl)c1Cl | inconclusive: 75.4 µM [cytotoxic, partial curve, poor fit] |  |
| O=C(Nc1ccccc1)Nc1cnns1 | inconclusive: 76.9 µM [cytotoxic, partial curve, poor fit] |  |
| Cn1cc(-c2ccccc2)c(=O)c(-c2cccc(C(F)(F)F)c2)c1 | inconclusive: 42.2 µM [cytotoxic, partial curve, poor fit] |  |
| Nc1ccc(Br)cc1 | inconclusive: 27.3 µM [rising, single point] |  |
| COc1cccc2c1C(=O)c1c(O)c3c(c(O)c1C2=O)C[C@@](O)(C(=O)CO)CC3OC1CC(N2CCOC(OC)C2)C(O)C(C)O1 (some centres not stated) | active: 0.119 µM |  |
| C/C(=C\c1ccccc1)[N+](=O)[O-] | inconclusive: 48.6 µM [cytotoxic, partial curve, poor fit] |  |
| Cn1c(N)nc2c3cccnc3ccc21 | inconclusive: 46.1 µM [cytotoxic, partial curve] |  |
| Nc1ccc(Cc2ccc(N)c(Cl)c2)cc1Cl | inconclusive: 66.3 µM [cytotoxic, partial curve, poor fit] |  |
| Oc1c(Br)c(Br)c(Br)c(Br)c1Br | inconclusive: 61.5 µM [cytotoxic, single point] |  |
| Oc1cc(Cl)c(Cl)c(Cl)c1Cl | inconclusive: 67 µM [cytotoxic, single point] |  |
| COC(=O)N(OC)c1ccccc1COc1ccn(-c2ccc(Cl)cc2)n1 | inconclusive: 6.11 µM [cytotoxic, full curve] |  |
| Cc1ccc(-c2c(Cl)nc(C#N)n2S(=O)(=O)N(C)C)cc1 | inconclusive: 68.5 µM [cytotoxic, single point] |  |
| CCOS(=O)(=O)OCC | inconclusive: 48.6 µM [cytotoxic, partial curve] |  |
| O=[N+]([O-])c1cc(C(F)(F)F)cc([N+](=O)[O-])c1Cl |  | inactive: -21.5% |

Assay: qHTS assay to identify small molecule antagonists of the constitutive androstane receptor (CAR) signaling pathway - cell viability counter screen (AID 1224837)
Conditions: HepG2-CYP2B6-hCAR viability, CellTiter-Fluor, 23 h, co-treated with 50 nM CITCO; series mostly up to 92.4 µM; activity change, negative = cytotoxicity: at the top concentration
Summary of the method: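 HepG2-CYP2B6-hCAR cells, 2500/well, 4 hr pre-incubation; compound titration, 15 conc.; CITCO 50 nM final; 23 hr, 37 C/5% CO2; CellTiter-Fluor, fluorescence intensity.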

| SMILES | Potency |
| --- | --- |
| O=C(Nc1ccccc1)Nc1cnns1 | inconclusive: 61.1 µM [cytotoxic, partial curve, poor fit] |
| Cn1cc(-c2ccccc2)c(=O)c(-c2cccc(C(F)(F)F)c2)c1 | inconclusive: 47.4 µM [cytotoxic] |
| COc1cccc2c1C(=O)c1c(O)c3c(c(O)c1C2=O)C[C@@](O)(C(=O)CO)CC3OC1CC(N2CCOC(OC)C2)C(O)C(C)O1 (some centres not stated) | active: 0.106 µM |
| Cn1c(N)nc2c3cccnc3ccc21 | inconclusive: 51.8 µM [cytotoxic, partial curve] |
| CCN(CC)C(=S)[S-].CCN(CC)C(=S)[S-].[Zn+2] | active: 1.36 µM |
| Nc1ccc(Cc2ccc(N)c(Cl)c2)cc1Cl | inconclusive: 66.3 µM [cytotoxic, partial curve, poor fit] |
| Oc1c(Br)c(Br)c(Br)c(Br)c1Br | inconclusive: 69 µM [cytotoxic] |
| Oc1cc(Cl)c(Cl)c(Cl)c1Cl | inconclusive: 67 µM [cytotoxic, single point] |
| Nc1ccc(N)cc1 | inconclusive: 61.1 µM [cytotoxic, partial curve] |
| Cc1ccc(-c2c(Cl)nc(C#N)n2S(=O)(=O)N(C)C)cc1 | inconclusive: 68.5 µM [cytotoxic, single point] |
| Nc1ccc(Cl)cc1C(=O)c1ccccc1 | inconclusive: 61.1 µM [cytotoxic, single point] |
| CCOS(=O)(=O)OCC | inconclusive: 30.7 µM [cytotoxic, partial curve] |
| O=[N+]([O-])c1cc(C(F)(F)F)cc([N+](=O)[O-])c1Cl | inconclusive: 61.4 µM [cytotoxic, partial curve, poor fit] |
